{
  "source": "paper PMC9911399",
  "about": "“Two distinct binding modes provide the RNA-binding protein RbFox with extraordinary sequence specificity”",
  "binders": {"B1": {"name": "AAAGGAU (DNA:RNA)", "RNA": "GGGAGACCGGAAUUCAGAUUGUCCAAAGGAUUUAAAUCCCGUCGUAGCCACCA", "DNA 1": "CAATCTGAATTCCGGTCTCCC", "DNA 2": "TGGTGGCTACGACGGGATT"}, "B2": {"name": "CAGUCGA (DNA:RNA)", "RNA": "B1 RNA with A25C, A27G, G28U, G29C, A30G, U31A", "DNA 1": "CAATCTGAATTCCGGTCTCCC", "DNA 2": "TGGTGGCTACGACGGGATT"}, "B3": {"name": "AUACUUC (DNA:RNA)", "RNA": "B1 RNA with A26U, G28C, G29U, A30U, U31C", "DNA 1": "CAATCTGAATTCCGGTCTCCC", "DNA 2": "TGGTGGCTACGACGGGATT"}, "B4": {"name": "UGUGACA (DNA:RNA)", "RNA": "B1 RNA with A25U, A26G, A27U, G29A, A30C, U31A", "DNA 1": "CAATCTGAATTCCGGTCTCCC", "DNA 2": "TGGTGGCTACGACGGGATT"}, "B5": {"name": "CAUGCGG (DNA:RNA)", "RNA": "B1 RNA with A25C, A27U, G29C, A30G, U31G", "DNA 1": "CAATCTGAATTCCGGTCTCCC", "DNA 2": "TGGTGGCTACGACGGGATT"}, "B6": {"name": "CACGGCG (DNA:RNA)", "RNA": "B1 RNA with A25C, A27C, A30C, U31G", "DNA 1": "CAATCTGAATTCCGGTCTCCC", "DNA 2": "TGGTGGCTACGACGGGATT"}, "B7": {"name": "ACAACAU (DNA:RNA)", "RNA": "B1 RNA with A26C, G28A, G29C", "DNA 1": "CAATCTGAATTCCGGTCTCCC", "DNA 2": "TGGTGGCTACGACGGGATT"}, "B8": {"name": "AGAUAGU (DNA:RNA)", "RNA": "B1 RNA with A26G, G28U, G29A, A30G", "DNA 1": "CAATCTGAATTCCGGTCTCCC", "DNA 2": "TGGTGGCTACGACGGGATT"}, "B9": {"name": "UGGUUUU (DNA:RNA)", "RNA": "B1 RNA with A25U, A26G, A27G, G28U, G29U, A30U", "DNA 1": "CAATCTGAATTCCGGTCTCCC", "DNA 2": "TGGTGGCTACGACGGGATT"}, "B10": {"name": "UCUAACU (DNA:RNA)", "RNA": "B1 RNA with A25U, A26C, A27U, G28A, G29A, A30C", "DNA 1": "CAATCTGAATTCCGGTCTCCC", "DNA 2": "TGGTGGCTACGACGGGATT"}, "B11": {"name": "CCGCCCU (DNA:RNA)", "RNA": "B1 RNA with A25C, A26C, A27G, G28C, G29C, A30C", "DNA 1": "CAATCTGAATTCCGGTCTCCC", "DNA 2": "TGGTGGCTACGACGGGATT"}, "B12": {"name": "UCACGCU (DNA:RNA)", "RNA": "B1 RNA with A25U, A26C, G28C, A30C", "DNA 1": "CAATCTGAATTCCGGTCTCCC", "DNA 2": "TGGTGGCTACGACGGGATT"}, "B13": {"name": "GAGGACU (DNA:RNA)", "RNA": "B1 RNA with A25G, A27G, G29A, A30C", "DNA 1": "CAATCTGAATTCCGGTCTCCC", "DNA 2": "TGGTGGCTACGACGGGATT"}, "B14": {"name": "GAUGGGC (DNA:RNA)", "RNA": "B1 RNA with A25G, A27U, A30G, U31C", "DNA 1": "CAATCTGAATTCCGGTCTCCC", "DNA 2": "TGGTGGCTACGACGGGATT"}, "B15": {"name": "UGUAGAG (DNA:RNA)", "RNA": "B1 RNA with A25U, A26G, A27U, G28A, U31G", "DNA 1": "CAATCTGAATTCCGGTCTCCC", "DNA 2": "TGGTGGCTACGACGGGATT"}, "B16": {"name": "AAAGGGA (DNA:RNA)", "RNA": "B1 RNA with A30G, U31A", "DNA 1": "CAATCTGAATTCCGGTCTCCC", "DNA 2": "TGGTGGCTACGACGGGATT"}, "B17": {"name": "AUUGUUA (DNA:RNA)", "RNA": "B1 RNA with A26U, A27U, G29U, A30U, U31A", "DNA 1": "CAATCTGAATTCCGGTCTCCC", "DNA 2": "TGGTGGCTACGACGGGATT"}, "B18": {"name": "UCUAUAA (DNA:RNA)", "RNA": "B1 RNA with A25U, A26C, A27U, G28A, G29U, U31A", "DNA 1": "CAATCTGAATTCCGGTCTCCC", "DNA 2": "TGGTGGCTACGACGGGATT"}, "B19": {"name": "GAGGGGC (DNA:RNA)", "RNA": "B1 RNA with A25G, A27G, A30G, U31C", "DNA 1": "CAATCTGAATTCCGGTCTCCC", "DNA 2": "TGGTGGCTACGACGGGATT"}, "B20": {"name": "GACCCUG (DNA:RNA)", "RNA": "B1 RNA with A25G, A27C, G28C, G29C, A30U, U31G", "DNA 1": "CAATCTGAATTCCGGTCTCCC", "DNA 2": "TGGTGGCTACGACGGGATT"}},
  "note": "Changes are numbered by the printed parent chain; changes in the protein carry UniProt numbers. The list shows a part of the results.",
  "data": [
    {"molecular_target": "T1, RBFOX1 RRM RbFoxmut (Fox-RRM*) (Homo sapiens, UniProt Q9NWB1 109-208, R118D;E147R;N151S;E152T)", "T1 sequence": "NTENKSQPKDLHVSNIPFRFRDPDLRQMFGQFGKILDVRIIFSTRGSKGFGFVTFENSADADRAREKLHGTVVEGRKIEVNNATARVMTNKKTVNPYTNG", "assay": "EMSA; HiTS-Eq, 1 nM pool, 10 min; buffer printed only for the single-RNA assays: 10 mM Tris pH 7.5, 150 mM NaCl, 3.4 mM EDTA, 0.001% NP-40, 30 C", "conditions": "tags: His6 N-terminal (pET28a); label: 5' 32P", "summary_of_the_method": "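A pool of RNA with 7 randomized nucleotides, 5′-radiolabelled and with DNA-annealed flanks, was equilibrated at 1 nM for 10 min in 50 µL with purified RbFox RRM, wild type or mutant, across increasing protein concentrations. Free RNA was separated by 8% native PAGE, excised, reverse-transcribed, barcoded by PCR and sequenced. Relative association constants were obtained from read-count changes of each RNA species versus the control reaction and normalised to the cognate motif.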", "values": [
      {"binder": "B1", "binding signal": "0.0765 KA relative to UGCAUGU"},
      {"binder": "B2", "binding signal": "0.0678 KA relative to UGCAUGU"},
      {"binder": "B3", "binding signal": "0.0634 KA relative to UGCAUGU"},
      {"binder": "B4", "binding signal": "0.0706 KA relative to UGCAUGU"},
      {"binder": "B5", "binding signal": "0.0671 KA relative to UGCAUGU"},
      {"binder": "B6", "binding signal": "0.129 KA relative to UGCAUGU"},
      {"binder": "B7", "binding signal": "0.0911 KA relative to UGCAUGU"},
      {"binder": "B8", "binding signal": "0.108 KA relative to UGCAUGU"},
      {"binder": "B9", "binding signal": "0.0956 KA relative to UGCAUGU"},
      {"binder": "B10", "binding signal": "0.0968 KA relative to UGCAUGU"},
      {"binder": "B11", "binding signal": "0.049 KA relative to UGCAUGU"},
      {"binder": "B12", "binding signal": "0.075 KA relative to UGCAUGU"},
      {"binder": "B13", "binding signal": "0.0416 KA relative to UGCAUGU"},
      {"binder": "B14", "binding signal": "0.0797 KA relative to UGCAUGU"},
      {"binder": "B15", "binding signal": "0.152 KA relative to UGCAUGU"},
      {"binder": "B16", "binding signal": "0.0779 KA relative to UGCAUGU"},
      {"binder": "B17", "binding signal": "0.175 KA relative to UGCAUGU"},
      {"binder": "B18", "binding signal": "0.112 KA relative to UGCAUGU"},
      {"binder": "B19", "binding signal": "0.0865 KA relative to UGCAUGU"},
      {"binder": "B20", "binding signal": "0.0972 KA relative to UGCAUGU"}
    ]}
  ]
}
